Experimental data: PubChem BioAssay AID485294 (National Center for Advancing Translational Sciences (NCATS), 2010)
Among all 370,000 compounds or so, about 150 (0.041%) were called active. Inconclusive results, whose numbers are uncertain, are shown with a selection of clear calls. Calls follow the shape of the dose curve; as a rule, active = well fitted inhibition curve with a large enough effect; inconclusive = small, poorly fitted or top-dose-only effect; inactive = flat fitted curve, though single readings scatter. Potencies of inconclusive entries are left out as doubtful fits.
Also: nearly all actives have a fitted effect of over 25% in size.
Potency is read from the fitted curve at half-maximal effect; tags tell the direction and shape of the fitted curve.

Each compound was assayed against Beta-lactamase (Escherichia coli (strain K12)) (UniProt P00811) (assay: qHTS Inhibitors of AmpC Beta-Lactamase (assay with detergent)). Conditions: AmpC hydrolysis of nitrocefin, absorbance 480 nm, 0.01% Triton; series mostly up to 114 µM.
Chain of UniProt P00811 (P00811 whole entry, looked up): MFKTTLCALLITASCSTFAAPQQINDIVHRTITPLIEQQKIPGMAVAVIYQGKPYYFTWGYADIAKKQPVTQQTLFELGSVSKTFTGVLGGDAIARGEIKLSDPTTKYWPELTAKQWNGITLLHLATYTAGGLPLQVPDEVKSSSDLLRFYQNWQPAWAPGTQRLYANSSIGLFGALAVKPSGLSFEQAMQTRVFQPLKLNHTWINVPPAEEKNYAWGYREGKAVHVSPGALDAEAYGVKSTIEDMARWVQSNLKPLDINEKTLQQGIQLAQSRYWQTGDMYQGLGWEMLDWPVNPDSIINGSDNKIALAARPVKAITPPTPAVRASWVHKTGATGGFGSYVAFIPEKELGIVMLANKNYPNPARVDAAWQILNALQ
Outline: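 AmpC (5.3 nM in the dispensed reagent) in 20 mM phosphate pH 7.0 with 0.01% (detergent screen) or 0.0001% Triton X-100 was preincubated with compounds for 15 min at room temperature. Nitrocefin was then added from an 800 uM solution, and hydrolysis was followed at 480 nm.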
CC(=O)c1cccc(NC(=O)c2ccc(S(=O)(=O)N3CCCC3)cc2)c1 was tested, and the Potency was “inactive”. O=C(/C=C/c1cccs1)N1CCN(c2ccccc2F)CC1 was tested, and the Potency was inconclusive [inhibitor, full curve, poor fit]. For Cn1c(=O)c2c(nc(SCC(=O)N3c4ccccc4CCc4ccccc43)n2C)n(C)c1=O, the Potency was “inactive”. For CCN1CCN(c2c(C=O)c(Cl)nc3ccc(OC)cc23)CC1, the Potency was inconclusive [inhibitor, full curve, poor fit]. In the case of CCCCn1c(SCC(=O)Nc2cc(C(F)(F)F)cc(C(F)(F)F)c2)nnc1C(CC)N(C)C (stereo not drawn), the Potency is reported as “inactive”. For CC(C)CN(C(=O)c1ccco1)C1CCS(=O)(=O)C1 (stereo not drawn), the Potency was inconclusive [inhibitor, full curve, poor fit]. For CCN(CC)C(=O)c1sc2c(c1C)c(=O)n(-c1ccc(Cl)c(Cl)c1)c(=O)n2Cc1ccccc1C#N, the Potency was “inactive”. For CC1=N/C(=C\c2ccc3c(c2)OCO3)C(=O)N1c1ccc(C(=O)O)cc1, the Potency was inconclusive [inhibitor, single point]. In the case of O=C(Nc1ccc(S(=O)(=O)Nc2ccccn2)cc1)c1cccc([N+](=O)[O-])c1, the Potency is reported as inconclusive [inhibitor, partial curve, poor fit]. For COc1cc(NC(=O)Cn2c(=O)n(Cc3ccco3)c(=O)c3sc4ccccc4c32)cc(OC)c1, the Potency was “inactive”. For Cc1ccccc1C(=O)Nc1ccc(N(C)C)c2ccccc12, the Potency was inconclusive [inhibitor, full curve]. With CN1CCc2c(sc3c2C(=O)NC(c2ccc(OC(=O)c4ccc(C(C)(C)C)cc4)cc2)N3)C1 (stereo not drawn) the Potency was “inactive”. In the case of CCOC(=O)C1SC2(C(F)F)CC1(O)c1c(c(OC)c3occc3c1OC)O2 (stereo not drawn), the Potency is reported as inconclusive [inhibitor, full curve, poor fit]. For O=C(NCCc1cccc(Cl)c1)c1cccnc1, the Potency was inconclusive [inhibitor, partial curve]. O=C(Nc1cccc(Cl)c1)c1ccc(F)c(S(=O)(=O)NCc2cccs2)c1 was tested, and the Potency was inconclusive [inhibitor, single point]. For O=c1c(=NNc2ccccc2Cl)c(=O)c2ccccc12, the Potency was “inactive”. With Cc1ccc(-c2noc(CN3CCN(c4ccccc4F)CC3)n2)cc1 the Potency was inconclusive [inhibitor, partial curve]. For O=C(NNC(=O)c1cccnc1)Nc1cccc(Cl)c1Cl, the Potency was “inactive”. With COC(=O)c1c(N2C(=O)[C@H]3[C@@H](C2=O)[C@]2(C(=O)Nc4c(C)cccc42)N2CCC[C@@H]32)sc(C)c1C the Potency was “inactive”. CCOc1cc(C(N)=O)cc(OCC)c1OCC was tested, and the Potency was inconclusive [inhibitor, full curve]. COc1ccc(C(C(=O)NC2CCCC2)N(Cc2ccc(C)cc2)C(=O)c2ccn[nH]2)cc1OC (stereo not drawn) was tested, and the Potency was inconclusive [inhibitor, partial curve]. For COc1ccc(-n2c(=O)c3c(c4cc(OC)ccc4n3C)n(Cc3cccc(OC)c3)c2=O)cc1, the Potency was “inactive”. In the case of Cc1cccc(Cn2c(SCc3ccc(C(=O)NCCc4ccccc4)cc3)nc3ccncc32)c1, the Potency is reported as “inactive”. For O=C(NCC(c1cccnc1)N1CCOCC1)C1CCCCC1 (stereo not drawn), the Potency was inconclusive [inhibitor, partial curve, poor fit]. For CCCCn1c(SCN2C(=O)c3ccccc3C2=O)nc2cc(S(N)(=O)=O)ccc21, the Potency was inconclusive [inhibitor, full curve, poor fit]. With CCOc1[nH]n(-c2ccccc2)c(=O)c1C=Nc1ccc(OC)cc1 the Potency was inconclusive [inhibitor, full curve, poor fit]. With Cc1ccc(N=C(N(C)C)P(=O)(N(C)C)N(C)C)cc1 the Potency was inconclusive [inhibitor, partial curve]. O=C(CSc1nnc(-c2cccnc2)n1Cc1ccco1)c1ccc(Cl)cc1 was tested, and the Potency was inconclusive [inhibitor, full curve, poor fit]. For Cn1cnc(S(=O)(=O)NCc2ccccc2)c1, the Potency was inconclusive [inhibitor, full curve, poor fit]. CCOC(=O)N(C)c1ccc(C(O)(C(=O)OC)C(F)(F)F)cc1 (stereo not drawn) was tested, and the Potency was “inactive”. For COc1ccc(CCNC(=O)c2cc(=O)[nH]c3ccccc23)cc1, the Potency was inconclusive [inhibitor, full curve]. For CC(=O)c1c(C)[nH]c(C(=O)OCC(=O)NCCC(C)C)c1C, the Potency was inconclusive [inhibitor, full curve, poor fit]. For CCOC(=O)C1=C(c2ccccc2)NC(=O)NC1c1ccc(O)c(OCC)c1 (stereo not drawn), the Potency was “inactive”. C#CCOCCOCCOCCNc1nc(N2CCN(C(=O)CCCCCCCCCCNC(=O)[C@@H](CCSC)n3cc(CCO)nn3)CC2)nc(N2CCN(C(=O)CCCCCCCCCCNC(=O)[C@H]([C@@H](C)CC)n3cc(CCCCCN)nn3)CC2)n1 was tested, and the Potency was “inactive”. For COc1ccc2nc(SCC(=O)Nc3nccs3)[nH]c2c1, the Potency was “inactive”. In the case of O=C(c1cc(Cl)ccc1Cl)N1CCOCC1, the Potency is reported as “inactive”. Cc1cc(C)c(C#N)c(SCC(=O)C(C)(C)C)n1 was tested, and the Potency was inconclusive [inhibitor, full curve, poor fit]. For COc1ccc(Cl)cc1NC(=O)C(C)NC(c1ccccc1)c1ccccc1 (stereo not drawn), the Potency was inconclusive [inhibitor, partial curve]. In the case of COC(=O)c1ccccc1NC(=O)C1CCN(C(=O)N2CCOc3ccccc32)CC1, the Potency is reported as inconclusive [inhibitor, full curve, poor fit]. With O=C(Cn1cnc2scc(-c3ccc(F)cc3)c2c1=O)NCC(c1ccco1)N1CCCC1 (stereo not drawn) the Potency was “inactive”. C[n+]1ccccc1N1CCN(c2ccccc2Cl)CC1 was tested, and the Potency was inconclusive [inhibitor, full curve, poor fit]. With Cc1ccc2nc(CSc3nnc(Cc4cccs4)n3C3CCCCC3)cc(=O)n2c1 the Potency was inconclusive [inhibitor, partial curve, poor fit]. With O=C(CSc1nc2ccccc2n1CC(=O)NCc1ccccc1)NCc1ccco1 the Potency was inconclusive [inhibitor, partial curve, poor fit]. For CCCCn1c2ccc(F)cc2c2nnc(SCCN(CC)CC)nc21, the Potency was “inactive”. O=C1COc2ccc(C(=O)COC(=O)c3ccc(S(=O)(=O)C(F)F)cc3)cc2N1 was tested, and the Potency was inconclusive [inhibitor, single point]. CC1CCN(S(=O)(=O)N2CCC(C(=O)NCc3cccs3)CC2)CC1 was tested, and the Potency was inconclusive [inhibitor, partial curve]. In the case of CC(C)(C)n1ncc2c(=O)n(CC(=O)N3CCCCC3)cnc21, the Potency is reported as “inactive”. For Cc1ccc(NC(NC(=O)c2ccccn2)C(Cl)(Cl)Cl)cc1 (stereo not drawn), the Potency was inconclusive [inhibitor, partial curve, poor fit]. With CCOC(=O)c1sc(NC(=O)c2sccc2C)cc1C the Potency was “inactive”. In the case of CC(Sc1nc(-c2ccc(F)cc2)cs1)C(=O)N1c2ccccc2CC1C (stereo not drawn), the Potency is reported as inconclusive [inhibitor, partial curve, poor fit]. In the case of CC(=O)Nc1ccc(S(=O)(=O)N2CCCC2C(=O)Nc2ccc3c(c2)OCCO3)cc1 (stereo not drawn), the Potency is reported as “inactive”. Cc1cc(C)n(C(N)=NC(=O)c2ccc([N+](=O)[O-])cc2)n1 was tested, and the Potency was “inactive”. CC(C)Oc1ccc(S(=O)(=O)N2CCCCC2)cc1NC(=O)C1CCC1 was tested, and the Potency was inconclusive [inhibitor, full curve, poor fit]. For CC(=O)OC[C@H]1COc2ccc3ccccc3c2[C@H]1N(C)C(C)=O, the Potency was inconclusive [inhibitor, full curve, poor fit]. Cc1ccc2c(CC(=O)NCc3ccc4c(c3)OCO4)coc2c1 was tested, and the Potency was inconclusive [inhibitor, full curve]. In the case of COc1cn(-c2ccccc2)nc1C(=O)Nc1ccc(C)cc1, the Potency is reported as “inactive”. CC(C)N1C(=O)/C(=C\c2nc3ccccc3c(=O)[nH]2)c2ccccc21 was tested, and the Potency was “inactive”. In the case of Cc1nnc(CN(C)C(=O)CC2C(=O)NCCN2Cc2ccccc2C)o1 (stereo not drawn), the Potency is reported as inconclusive [inhibitor, full curve]. With CCCCN(C(=O)c1cnc2n(c1=O)CCS2)c1ccccc1 the Potency was inconclusive [inhibitor, full curve, poor fit]. With Cc1ccc(-n2ncc(C(=O)NCCN3CCc4ccccc4C3)c2C2CCN(C(=O)OC(C)(C)C)CC2)cc1 the Potency was “inactive”. O=c1ccc(Cl)n[nH]1 was tested, and the Potency was inconclusive [inhibitor, full curve, poor fit]. CCCC(C)NC(=O)Cc1ccc(Br)cc1 (stereo not drawn) was tested, and the Potency was inconclusive [inhibitor, full curve, poor fit]. COC(c1ccc(Cl)cc1)(c1ccc(Cl)cc1)C(Oc1nc(C)cc(C)n1)C(=O)O (stereo not drawn) was tested, and the Potency was inconclusive [inhibitor, full curve, poor fit]. In the case of CCOC(=O)c1cccc(NC(=O)CN2C(=O)CC(C)(C)Sc3ccccc32)c1, the Potency is reported as “inactive”. In the case of Cc1ccc(-c2cc(C(=O)N/N=C/c3ccco3)[nH]n2)cc1, the Potency is reported as inconclusive [inhibitor, full curve, poor fit]. CCOC(=O)Nc1ccc(S(=O)(=O)Nc2nc(C)cc(C)n2)cc1 was tested, and the Potency was inconclusive [inhibitor, single point]. For O=C1NC(=Nc2cccc(Cl)c2)SC1Cc1cccc(Cl)c1Cl (stereo not drawn), the Potency was inconclusive [inhibitor, full curve, poor fit]. S=c1[nH]nc(-c2cc(-c3ccccc3)n[nH]2)n1/N=C/c1c2ccccc2cc2ccccc12 was tested, and the Potency was inconclusive [inhibitor, full curve, poor fit].
